{"source": "PubChem BioAssay AID485344", "about": "(National Center for Advancing Translational Sciences (NCATS), 2010)", "note": "Screen size: about 340,000 compounds; about 6,900 (2%) were called active. No stated cut-off is given here; in the data, active means inhibition above about 30%; inactive means below that, where a call was filed. The list shows a part of the results, in another mix than the full data. Entries without a call were filed so in the source."}
{"target": "D(2) dopamine receptor (Homo sapiens) (UniProt P14416)", "sequence (P14416 whole entry, looked up)": "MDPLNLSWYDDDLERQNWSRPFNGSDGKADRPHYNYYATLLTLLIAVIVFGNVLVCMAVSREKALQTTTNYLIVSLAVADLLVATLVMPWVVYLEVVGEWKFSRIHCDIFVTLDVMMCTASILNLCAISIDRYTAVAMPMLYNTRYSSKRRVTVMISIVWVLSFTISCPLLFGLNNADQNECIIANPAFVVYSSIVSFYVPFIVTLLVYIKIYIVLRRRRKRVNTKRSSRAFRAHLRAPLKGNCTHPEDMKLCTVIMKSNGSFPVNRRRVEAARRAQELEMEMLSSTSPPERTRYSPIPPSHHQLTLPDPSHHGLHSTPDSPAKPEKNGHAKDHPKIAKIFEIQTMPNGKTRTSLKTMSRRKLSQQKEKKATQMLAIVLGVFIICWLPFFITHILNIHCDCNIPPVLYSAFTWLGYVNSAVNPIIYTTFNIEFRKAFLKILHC", "assay": "HTS Assay for Allosteric Antagonists of the Human D2 Dopamine Receptor: Primary Screen for Antagonists; further: 0% is about no effect", "conditions": "HEK293 TREx D2 cells, calcium flux, dopamine EC80; at 10 µM; stronger effect = higher value", "procedure,_shortened": "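Antagonism is scored as inhibition of an EC80 dopamine-evoked calcium signal in a force-coupled, tetracycline-inducible HEK293 T-REx D2 line, with compound present 180 s before agonist.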"}
{"smiles": "CCn1c(CNC(=O)C23CC4CC(CC(C4)C2)C3)nnc1SCC(=O)Nc1ccccc1", "inhibition": "2.52%"}
{"smiles": "Cc1ccc(C)c(OCCn2cc(C(=O)c3ccco3)c3ccccc32)c1", "inhibition": "-5.73%"}
{"smiles": "COc1ccc(-c2nc(CNS(=O)(=O)c3ccccc3)cs2)cc1", "inhibition": "10.8%"}
{"smiles": "COc1cccc(CNC(=O)c2cc3c(s2)-c2c(C)cccc2OC3)c1", "inhibition": "-12.9%"}
{"smiles": "O=C(Oc1ccc(F)cc1)c1nc(SCc2ccccc2F)ncc1Cl", "inhibition": "11.3%"}
{"smiles": "Cc1oc2ncn(C)c(=O)c2c1C(=O)N1CCN(c2ccccc2)CC1", "inhibition": "-15.2%"}
{"smiles": "COc1ccccc1C(=O)NC1(C(F)(F)F)C(=O)Nc2c1c(=O)[nH]c(=O)n2-c1ccccc1", "note": "(stereo unspecified)", "inhibition": "2.45%"}
{"smiles": "COc1ccc(-n2nc3c(N4CCCC(C(=O)NCc5cccc(F)c5)C4)nnc(C)c3c2C)cc1", "note": "(stereo unspecified)", "inhibition": "-13%"}
{"smiles": "Cc1ccc(Cn2c(C(=O)O)c(CNC3CCCCCC3)c3ccc(C)cc32)cc1", "inhibition": "7.27%"}
{"smiles": "COc1ccccc1CNC(=O)c1ccc2c(c1)N(Cc1cccc(Cl)c1)C(=O)c1ccccc1S2(=O)=O", "inhibition": "-8.34%"}
{"smiles": "COc1ccc(Cn2c(C(=O)O)c(CNCCc3cccs3)c3ccc(C)cc32)cc1", "inhibition": "4.28%"}
{"smiles": "CC(=O)c1ccc(NC(=O)Cn2c(=O)c3cccn3c3ccccc32)cc1", "inhibition": "12.6%"}
{"smiles": "CCN1CCN(c2nc(Nc3ccccc3F)nc(N)c2[N+](=O)[O-])CC1", "inhibition": "active: 77.8%"}
{"smiles": "Cc1cc(C)cc(S(=O)(=O)Nc2cccc(-c3ccc(N4CCOCC4)nn3)c2)c1", "inhibition": "19.1%"}
{"smiles": "Cc1ccc(NC(=O)Cn2c(=O)n(CCC(=O)N3CCc4ccccc4C3)c(=O)c3ccccc32)cc1", "inhibition": "-15.6%"}
{"smiles": "Cc1oc2ncn(CC(C)C)c(=O)c2c1C(=O)Nc1cc(F)ccc1F", "inhibition": "-5.66%"}
{"smiles": "CC(C)(C)C(=O)NCCc1nc2ccccc2n1CCCCOc1ccc(Cl)cc1", "inhibition": "-16.6%"}
{"smiles": "O=C(CCCN1C(=O)C(c2ccccc2)Oc2cccnc21)Nc1ccc(Br)cc1F", "note": "(stereo unspecified)", "inhibition": "9.05%"}
{"smiles": "COc1ccc2c(CNCCc3cccs3)c(C(=O)O)n(Cc3ccccc3)c2c1", "inhibition": "11.1%"}
{"smiles": "COc1ccc(-c2nc(SCC(=O)NCCc3ccc(OC)c(OC)c3)n[nH]2)cc1", "inhibition": "-3.31%"}
{"smiles": "CCOc1ccc(CCNC(=O)c2cc3c(=O)[nH]c4ccc(C)cc4c3s2)cc1OCC", "inhibition": "10.6%"}
{"smiles": "O=C(NC1CCCc2ccccc21)c1ccc2c(c1)sc1nc(-c3ccc(F)cc3)cn12", "note": "(stereo unspecified)", "inhibition": "-1.19%"}
{"smiles": "Cc1ccc(Cl)cc1NC(=O)C1CCC(CNS(=O)(=O)c2cccc3nsnc23)CC1", "note": "(stereo unspecified)", "inhibition": "-9.18%"}
{"smiles": "CCc1ccc2c(c1)NC(c1cccs1)=NC(c1ccc(F)cc1)=N2", "inhibition": "5.24%"}
{"smiles": "COc1ccc(NC(=O)Cn2c(=O)oc3cc(S(=O)(=O)N4CCC(C)CC4)ccc32)c(OC)c1", "inhibition": "-8.69%"}
{"smiles": "CCc1ccccc1N(C)C(=O)Cn1cnc2sc(C)c(S(=O)(=O)N3CCN(c4ncccn4)CC3)c2c1=O", "inhibition": "-14.5%"}
{"smiles": "CCCS(=O)(=O)c1c(Nc2ccccc2C)sc(C(=O)c2ccccc2)c1N", "inhibition": "-8.16%"}
{"smiles": "CCCc1cc(C(N)=O)c(NC(=O)c2ccoc2C)s1", "inhibition": "active: 30.9%"}
{"smiles": "Cc1ccc(NS(=O)(=O)c2cc(Br)cc3c2N(C(=O)C2CC2)CC3)cc1C", "inhibition": "9.71%"}
{"smiles": "COC(=O)c1ccc(Cn2nnc3sc4c(c3c2=O)CCC(C)C4)cc1", "note": "(stereo unspecified)", "inhibition": "0.224%"}
{"smiles": "CCOc1ccccc1CNC(=O)CCn1ccc2cc(S(=O)(=O)N3CCC(C)CC3)ccc21", "inhibition": "-5.19%"}
{"smiles": "COc1ccc(NC(=O)CN(C)CC(=O)Nc2sc3c(c2C#N)CCC3)cc1", "inhibition": "active: 32.2%"}
{"smiles": "CCOC(=O)Cc1ccc(NC(=O)NCc2ccc3c(c2)CCN3C(=O)CC)cc1", "inhibition": "23.4%"}
{"smiles": "COc1ccccc1C(=O)Nc1cc2c(cc1N1CCOCC1)n(C)c(=O)n2C", "inhibition": "2.41%"}
{"smiles": "COc1cc2[nH]c(=O)n(CCCCCC(=O)N3CCN(c4cccc(C(F)(F)F)c4)CC3)c(=O)c2cc1OC", "inhibition": "0.0089%"}
{"smiles": "O=C(NCc1cccs1)C1CCCN1C(=O)Nc1ccc(Cl)cc1", "note": "(stereo unspecified)", "inhibition": "active: 31.6%"}
{"smiles": "COc1cccc(N2CCN(C(=O)c3c(C)oc4ncnc(N5CCOCC5)c34)CC2)c1", "inhibition": "6.18%"}
{"smiles": "O=C(c1ccc(=O)[nH]c1)N1CCN(S(=O)(=O)c2ccccc2)CC1", "inhibition": "active: 30.9%"}
{"smiles": "Cc1cccc(NS(=O)(=O)c2ccc3oc(=O)c4ncn(C)c4c3c2)c1C", "inhibition": "3.43%"}
{"smiles": "CC(Sc1nnc(-c2cc3ccccc3o2)n1-c1ccccc1)C(=O)O", "note": "(stereo unspecified)", "inhibition": "active: 45%"}
{"smiles": "CCn1c(=O)n(CC)c2cc(N3CCCCC3)c(NC(=O)Nc3ccccc3Cl)cc21", "inhibition": "-12.4%"}
{"smiles": "CC(C)c1ccc(NC(=O)CN(C)S(=O)(=O)c2ccc3c(c2)c(=O)n(C)c(=O)n3C)cc1", "inhibition": "24.3%"}
{"smiles": "COc1ccccc1NC(=O)Cn1nnc(C(=O)NCc2ccc3c(c2)OCO3)c1N", "inhibition": "3.44%"}
{"smiles": "CCC(C)NC(=O)Cn1c(=O)cc(-c2ccccc2)c2c(C)nn(C)c21", "note": "(stereo unspecified)", "inhibition": "2.36%"}
{"smiles": "Cn1c(NCCO)nc2c1c(=O)n(Cc1ccccc1Cl)c(=O)n2C", "inhibition": "-4.58%"}
{"smiles": "O=C(NCC(c1ccco1)N1CCN(c2ccccc2F)CC1)C(=O)NC1CC1", "note": "(stereo unspecified)", "inhibition": "active: 32.7%"}
{"smiles": "CCc1ccc(OCC(=O)N(Cc2ccc(Cl)cc2)C2CCS(=O)(=O)C2)cc1", "note": "(stereo unspecified)", "inhibition": "-11.1%"}
{"smiles": "CCOC(=O)c1oc2c(c1C)-c1nn(Cc3ccc(Cl)cc3)cc1CC2", "inhibition": "0.145%"}
{"smiles": "Cc1noc(C)c1S(=O)(=O)N1CCC(C(=O)N2CCN(c3ccccc3)CC2)CC1", "inhibition": "6.13%"}
{"smiles": "COc1ccc(OCCCCn2c(CO)nc3ccccc32)cc1", "inhibition": "active: 73.6%"}
{"smiles": "N#C/C(=C\\c1ccccc1)c1nc(-c2cc3cc(Br)ccc3oc2=O)cs1", "inhibition": "13.1%"}
{"smiles": "Cc1cccc(N(C)C(=O)c2cc(S(=O)(=O)N3CCCC3)cn2C)c1", "inhibition": "12%"}
{"smiles": "COC(=O)c1ccccc1NC(=O)NCCc1c(C)nn(C)c1C", "inhibition": "9.84%"}
{"smiles": "CCc1ccc(CNCc2c(C(=O)O)n(Cc3cccc(F)c3)c3cc(OC)ccc23)cc1", "inhibition": "-9.74%"}
{"smiles": "COc1cccc(N2CCN(S(=O)(=O)c3ccc4[nH]c5c(c4c3)CCCC5)CC2)c1", "inhibition": "5.1%"}
{"smiles": "O=C(Nc1ccccc1Br)C1CCCN(S(=O)(=O)c2cccc3nsnc23)C1", "note": "(stereo unspecified)", "inhibition": "2.96%"}
{"smiles": "CCOC(=O)c1cccc(Nc2c3c(nc4ccccc24)CCC3)c1", "inhibition": "-8.27%"}
{"smiles": "Cc1cccc(NC(=O)c2c(NC(=O)C(F)(F)F)sc3c2CCCCC3)c1", "inhibition": "-2.4%"}
{"smiles": "O=C1CC(c2ccccc2)Cc2[nH]c(=O)c(C(=O)Nc3cccc(F)c3)cc21", "note": "(stereo unspecified)", "inhibition": "19.7%"}
{"smiles": "O=C(NCCS(=O)(=O)N1CCN(c2ccccc2)CC1)C(c1ccccc1)c1ccccc1", "inhibition": "-3.27%"}
{"smiles": "O=C(Nc1ccc2c(c1)OCO2)c1cc(-c2ccccc2Cl)on1", "inhibition": "active: 37.3%"}
